For 113 compounds, z-score results are on record in PubChem BioAssay AID488969 (Vanderbilt High Throughput Screening Facility, 2010).

Whole data set: some 110,000 compounds, median “z-score” near -0.1, cut for the highest 2% near 2. The list shows a part of the results.

The assay has as its target Metabotropic glutamate receptor 8 (Rattus norvegicus) (UniProt P70579). The assay is described as follows: rat mGluR8 modulators via GIRK flux, primary screen, cell-based, thallium flux, HTS (AID 488969). The conditions noted are these: HEK293 rat mGluR8, GIRK (G protein-gated inwardly rectifying potassium channel) thallium flux, FluoZin2; at 10 µM; stronger effect = higher value; submaximal glutamate (EC20) added with thallium.
Sequence of UniProt P70579 (P70579 whole entry, looked up): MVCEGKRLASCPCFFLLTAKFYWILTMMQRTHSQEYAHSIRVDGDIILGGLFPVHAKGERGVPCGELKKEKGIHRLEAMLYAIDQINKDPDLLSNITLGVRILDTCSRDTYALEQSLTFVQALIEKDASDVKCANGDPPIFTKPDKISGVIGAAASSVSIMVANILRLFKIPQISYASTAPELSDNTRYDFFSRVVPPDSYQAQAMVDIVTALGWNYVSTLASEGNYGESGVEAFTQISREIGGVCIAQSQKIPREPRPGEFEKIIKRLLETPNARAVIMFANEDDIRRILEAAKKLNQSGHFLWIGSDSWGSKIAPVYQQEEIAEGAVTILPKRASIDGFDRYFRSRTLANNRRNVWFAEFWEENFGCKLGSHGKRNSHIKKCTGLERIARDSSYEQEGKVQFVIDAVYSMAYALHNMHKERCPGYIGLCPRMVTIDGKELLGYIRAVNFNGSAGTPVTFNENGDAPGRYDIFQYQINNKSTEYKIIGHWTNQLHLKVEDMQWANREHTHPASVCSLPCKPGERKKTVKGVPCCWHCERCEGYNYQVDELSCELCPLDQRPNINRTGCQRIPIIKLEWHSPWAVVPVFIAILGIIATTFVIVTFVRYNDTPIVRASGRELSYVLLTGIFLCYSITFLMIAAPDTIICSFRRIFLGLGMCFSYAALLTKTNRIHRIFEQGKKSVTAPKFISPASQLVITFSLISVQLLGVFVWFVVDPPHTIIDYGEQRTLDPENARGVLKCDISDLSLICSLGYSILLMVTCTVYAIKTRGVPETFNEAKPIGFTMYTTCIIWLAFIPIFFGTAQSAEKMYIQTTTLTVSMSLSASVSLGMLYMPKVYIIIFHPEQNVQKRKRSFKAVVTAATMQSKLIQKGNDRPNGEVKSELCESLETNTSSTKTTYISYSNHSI
Take `O=C(O)CCCCNS(=O)(=O)c1ccc(Cl)c(C(F)(F)F)c1`: the z-score is -0.602.
In the case of `CCCC(=O)Oc1ccc2c(C)cc(=O)oc2c1`, the z-score is -0.598.
The value for `O=C(O)CCN1C(=O)CC(N2C(=O)/C(=C/c3ccc(Cl)cc3)SC2=S)C1=O` (stereo not drawn) was -0.273; that for `COC(=O)c1ccc(NC(=O)NC2CCCCC2)cc1` was -0.281; that for `Cc1cccc(N2C(=O)CS/C2=N\NC(=O)c2ccc(Br)cc2)c1C` was 1.16.
The result for `FC(F)(F)c1cnc(Nc2ccc(N3CCOCC3)cc2)c(Cl)c1` reads 0.0606; that for `COc1ccccc1Nc1nc(N)nc(CN2CCN(c3ccccc3F)CC2)n1`, -0.07.
The result for `Cc1nnn(-c2nonc2N)c1C(=O)N/N=C/c1ccccc1O` reads -0.0475; that for `CCn1c(SCC(=O)c2ccc(OC)cc2)nnc1C1CC1`, 0.468; that for `CC(C)=CCCC(C)N(C=O)C(C)CCC=C(C)C` (stereo not drawn), -0.778.
Take `Cn1c(=O)c2ccccc2n(Cc2ccccc2F)c1=O`: the z-score was determined as 0.406.
The value for `COc1ccc2c(C(=O)CN(C)C3CCCCC3)c[nH]c2c1` was 1.52.
Regarding `COc1c(OC(C)=O)ccc(/C=C/c2ccc3cccc(OC)c3n2)c1[N+](=O)[O-]`, the z-score was -0.154.
Consider `CCOc1ccccc1C(=O)Nc1nnc(COC)s1`, for which the z-score is -0.051.
The result for `CC(C)CC(C)NNC(=O)c1cc2ccccc2[nH]1` (stereo not drawn) reads 0.121; that for `Cc1ccc(C(=O)O/N=C/c2c(Cl)n(C)c3ccccc23)cc1`, -0.0365; that for `COc1ccc(/C=N/NC(=O)Cn2cnc3ccccc3c2=O)cc1`, 0.00606.
`O=C(CN1C(=O)C2C3C=CC(C3)C2C1=O)NCCc1ccccc1` (stereo not drawn) displayed a z-score of -0.0512.
For `Cc1cccc(NC(=S)N/N=C/c2ccc([N+](=O)[O-])s2)c1`, the z-score was determined as 1.29.
The result for `CCC(CC)c1nnc(NC(=O)CCCN2C(=O)c3ccccc3C2=O)s1` reads -0.686; that for `COc1ccc(N(C(=O)Cn2nnc3ccccc32)C2(C(=O)NC3CCCC3)CCCCC2)cc1`, -0.442; that for `COc1cc2c(C)nc3onc(-c4ccccc4)c3c2cc1OC`, -0.241.
With `COCCN(CCOC)C(=O)c1cc2sc3ccccc3c2s1`, the z-score was -1.09.
The result for `COn1c(SCC(=O)N(C)C)nc2ccccc2c1=O` reads 0.112; that for `COc1ccccc1S(=O)Cc1ccc(C(=O)NC2CCCC2)o1` (stereo not drawn), -0.167.
The value for `CCOC(=O)CSc1cc(=O)n(CC)c2ccccc12` was -0.628; that for `CCN(CC)c1nc2c(s1)C(=O)CC(C)(C)C2` was -0.108; that for `CCNc1nc(SC(C)C(=O)Nc2ccccc2)nc(N2CCOCC2)n1` (stereo not drawn) was -0.307.
The result for `COc1cccc(-c2nc(NC(C)(C)C)c3ccccc3n2)c1O` reads 0.524; that for `COc1cccc(CN(CC2CCCO2)S(=O)(=O)c2ccc(S(=O)(=O)NCC3CCCO3)cc2)c1OC` (stereo not drawn), 0.132.
`O=C(CCCc1c[nH]c2ccccc12)NCc1ccc2c(c1)OCO2` registered a z-score of -0.0876.
The value for `Cc1ccc(OCc2nc(C#N)c(NCc3ccc4c(c3)OCO4)o2)cc1` was -0.283.
The result for `S=C(NCc1ccc(Cl)c(Cl)c1)Nc1ccc2c(c1)OCO2` reads 0.244.
For the compound `Cc1ccc2oc3c(c(=O)c2c1)C(c1ccc(F)cc1)N(CCCN1CCOCC1)C3=O` (stereo not drawn), the z-score was -0.538.
As to `CC1Cc2ccccc2N1C(=O)CSc1nc2c(c(=O)n(C)c(=O)n2C)n1Cc1ccc(F)cc1` (stereo not drawn), the z-score is -0.211.
`COCc1[nH]nc2c1C1(C(=O)Nc3ccc(F)cc31)C(C#N)=C(N)O2` (stereo not drawn) showed a z-score of -0.0587.
`CSc1nc2ccc(Nc3nc(N4CCOCC4)nc(N4CCOCC4)n3)cc2s1` yielded a z-score of -0.466.
The compound `Cc1ccc(NC(=S)N/N=C2\CC(C)(C)Oc3ccc(O)cc32)cc1` came in with a z-score of 1.09.
In turn, `COc1cc(-c2nc(S(=O)(=O)c3ccc(Cl)cc3)c(N3CCOCC3)o2)cc(OC)c1OC` displayed a z-score of -0.427.
The value for `Cc1c(C(C)NC(=O)Nc2ccc(F)cc2F)cnn1C` (stereo not drawn) was 0.581; that for `CCCc1ccccc1OCCNC(C)=O` was -0.472.
`O=C(NCCc1c[nH]c2ccccc12)C(F)(F)C(F)F` came in with a z-score of -0.408.
The value for `CC(=O)NC12CC3CC(CC(CC(=O)O)(C3)C1)C2` was 0.634.
The value for `CN(C)C(=O)c1cc2cc([N+](=O)[O-])ccc2s1` was 0.0854; that for `CC(NC(=O)C(C)N1C(=O)C2C3CC(C(Br)C3Br)C2C1=O)c1ccccc1` (stereo not drawn) was -0.169; that for `CC1CCN(S(=O)(=O)c2cccc(C(=O)Oc3ccc([N+](=O)[O-])cc3)c2)CC1` was -0.832.
On to `CC(O)c1cccc(NC(=O)CCC(=O)O)c1` (stereo not drawn), for which the z-score is 0.158.
The result for `O=C(Cc1ccc2c(c1)OCCO2)c1c(O)cc(O)cc1O` reads -0.142; that for `COc1cc(OC)cc(C(=O)N[C@H](C(=O)Nc2nc3c(s2)CCCC3)C(C)C)c1`, -0.146; that for `CCOC(=O)c1cn2c3c(c(F)c(F)cc3c1=O)SC(N1CCOCC1)=N2`, -1.05.
The result for `CCOc1ccccc1OCCN1CCC(Cc2ccccc2)CC1` reads -0.00951.
In turn, `CCc1ccc(NC(=O)CSc2nnc(COc3ccc4c(c3)CCCC4)o2)cc1` showed a z-score of 0.00781.
`CCCCC(=O)NC(=S)Nc1ccccc1C(=O)Nc1ccccc1`: the z-score is -0.166.
The result for `Cn1cc(C(=O)c2ccc(Cl)cc2Cl)cc1C(=O)N/N=C(\N)COc1ccc(F)cc1` reads -0.962.
As to `CCOC(=O)N/N=C/c1ccc(F)cc1F`, the z-score was -0.344.
The result for `CCOC(=O)NC1(C(F)(F)F)NC(=O)N(c2cccc(C(F)(F)F)c2)C1=O` (stereo not drawn) reads 0.237; that for `Cc1cc(C)c2nc(-c3ccccn3)cc(C(=O)NCc3ccco3)c2c1`, -0.369.
`CCOC(=O)c1nn(-c2ccc(F)cc2)c(C)c1C(C)=O` returned a z-score of 1.41.
The value for `Cc1ccc(-c2nc(CSCC(=O)N3CCN(c4ccccn4)CC3)c(C)o2)cc1` was -0.534.
The compound `Nn1c(SCC(=O)Nc2ccccc2F)nnc1-c1cccnc1` returned a z-score of 0.367.
The result for `COCCOCC(O)CN1CCN(c2ccc(C)cc2)CC1` (stereo not drawn) reads -0.226; that for `CCC1CCCCN1C(=O)c1cccc(S(=O)(=O)Nc2cc(C(F)(F)F)ccc2Cl)c1` (stereo not drawn), -0.233.
Consider `Cc1cc2nc(C3CCN(CC4COc5ccccc5O4)CC3)[nH]c2cc1C` (stereo not drawn), for which the z-score is 0.138.
The value for `O=C1CC(N2CCN(Cc3ccccc3)CC2)C(=O)N1c1ccc2c(c1)OCCO2` (stereo not drawn) was -0.057; that for `O=C(NCc1ccco1)c1cc(-c2ccncc2)nc2ccccc12` was -0.497.
The value for `COc1ccc(/C=C2\CCc3ccccc3C2=O)cc1Cn1nc(C)cc1C` was -0.763.
For `COc1ccccc1N1CCN(C(=O)CCc2ccc(S(=O)(=O)NC(C)C)cc2)CC1`, the z-score was -0.363.
The compound `COC(=O)c1ccccc1NC(=O)N1CCN(C/C=C/c2ccccc2)CC1` had a z-score of -1.05.
The value for `Cc1ccc(Nc2cc(-n3nc(C)cc3C)ncn2)cc1` was -0.269.
With `CC1=CC(=O)N(c2ccc(C)cc2)C1c1ccc(Cl)cc1` (stereo not drawn), the z-score is -0.379.
The result for `CCC(C)(C)NC(=O)C(c1ccccc1)N(Cc1cccnc1)C(=O)c1csnn1` (stereo not drawn) reads 0.0873.
As to `CCCCc1nc2sc3c(=O)n(N)cnc3c2c2c1CCCC2`, the z-score is -0.123.
As for `COc1ccc(-c2ccc(C#N)c(SCC(=O)Nc3sc4c(c3C#N)CCC4)n2)cc1`, the z-score is -0.111.
As to `O=C(CCN1c2ccccc2Sc2ccccc21)Nc1ccccc1`, the z-score is -0.189.
The result for `Cc1cc([N+](=O)[O-])nn1Cc1ccccc1F` reads -0.213; that for `COc1ccccc1CNC(=O)CSc1ccc(C)cc1`, -0.171.
The result for `N#C/C(=C\c1cn[nH]c1-c1ccc(Cl)cc1)C(=O)NCc1ccccc1` reads -0.224.
Compound `O=C(/C=C/NNC(=O)c1ccccc1)c1ccc(Br)cc1` showed a z-score of 1.33.
Compound `COC(=O)c1ccc(NC(=O)C2C3CCC(C3)C2C(=O)O)cc1` (stereo not drawn) displayed a z-score of -0.102.
With `OC(COc1ccccc1)Cn1cc(Br)cn1` (stereo not drawn), the z-score came to 0.478.
The value for `COc1cc(OC)c(C2Oc3nc(SC)nnc3-c3ccccc3N2C(C)=O)cc1OC` (stereo not drawn) was 0.147; that for `CSc1nc(C)cc(OCCO)n1` was 0.402.
For the compound `Cn1nc(OCc2ccccc2)ccc1=O`, the z-score is -0.202.
The result for `COc1cc2cc(CN(C(=O)Nc3ccccc3)C3CCCC3)c(=O)[nH]c2cc1OC` reads -0.291.
The value for `Cc1ccc(S(=O)(=O)N2CCOCC2)cc1N/N=C(\C#N)c1nc2ccccc2[nH]1` was 0.221.
The value for `N/C(=N\OC(=O)/C=C/c1ccc(Br)cc1)c1ccccn1` was -0.142; that for `C(=N\Nc1nc(N2CCOCC2)nc(N2CCOCC2)n1)/c1ccncc1` was -0.0871; that for `CC(Sc1nc2ccccc2c(=O)[nH]1)C(=O)O` (stereo not drawn) was 1.3.
For `O=C(N/N=C/c1c(Cl)cccc1Cl)c1n[nH]c2c1CCCC2`, the z-score was -0.132.
Take `Cc1ccc(Cl)cc1NC(=O)c1cccc(OC(F)F)c1`: the z-score was -0.2.
The value for `COCCCn1c2nc3ccccc3nc2c2c(=O)n(CC3CCCO3)cnc21` (stereo not drawn) was -0.601; that for `Nc1nnc(CC2=CCCCC2)s1` was 0.175; that for `COCCNc1cc(N)c([N+](=O)[O-])cc1[N+](=O)[O-]` was -0.484.
The result for `CCOC(=O)c1ccccc1NC(=O)/C=C/C(=O)O` reads -0.105; that for `CCCNc1c(N)c(=O)oc2ccccc12`, -1.25; that for `Cc1ccc(NC(=O)CC2Nc3ccccc3NC2=O)cc1Cl` (stereo not drawn), 0.287.
The result for `O=C(Nc1nc2c(c(=O)[nH]1)CCCC2)C1CC1` reads -0.428; that for `CCC(Sc1ccc(C(=O)O)cc1)C(=O)O` (stereo not drawn), 0.0621; that for `COc1ccc(C(=O)Nc2cccc(OC(=O)c3ccc(C)c(C)c3)c2)cc1`, -0.176.
`CCCCOc1ccccc1NC(=O)c1ccco1` yielded a z-score of -0.751.
`N#CC(C#N)=Cc1ccc(-c2ccc(S(=O)(=O)N=C(N)N)cc2)o1` came in with a z-score of 0.0352.
The value for `O=C(N/N=C\c1ccc(F)cc1)c1cc(OCC(F)(F)F)ccc1OCC(F)(F)F` was -0.242; that for `O=C(Nc1cccc(Cl)c1)Nc1nnc(-c2ccncc2)s1` was -0.194; that for `Cc1ccc(C)c(N(CC(=O)NCc2ccco2)C(=O)CCC(=O)Nc2ccccn2)c1` was -0.679.
The result for `CCCn1nc2cc(C(=O)NCCc3ccc(C)cc3)ccc2c1OCC` reads 2.73; that for `Cn1c2ccccc2c2cc(C(=O)N3CCN(CCO)CC3)sc21`, 0.0169.
For `COc1ccc(C(=O)n2c(-c3ccco3)nc3ccccc32)cc1`, the z-score was -1.07.
For the compound `Cc1ccc(N2C(=O)[C@@H]3[C@H](C2=O)C2c4ccccc4C=NN2[C@@H]3C(=O)c2ccc(Cl)cc2)cc1` (stereo partly drawn), the z-score came to 1.69.
The result for `CC(NS(=O)(=O)c1ccc(Br)cc1)C(=O)NCCc1ccccc1` (stereo not drawn) reads -0.457; that for `CC1CN(Cc2nc3c(c(=O)n(C)c(=O)n3C)n2CCCc2ccccc2)CC(C)O1` (stereo not drawn), -0.556; that for `CC(C)(C)C1CCC(OC(=O)c2ccncc2)CC1` (stereo not drawn), 0.0808.
Compound `N#Cc1ccc(C(c2nnnn2Cc2ccccc2)N2CCCC2)cc1` (stereo not drawn) displayed a z-score of -0.0525.
The result for `CCn1c(SCC(=O)Nc2ccc3c(c2)OCO3)nc2ccccc21` reads -0.218.
